# Test results: PubChem BioAssay AID588453 (National Center for Advancing Translational Sciences (NCATS), 2011)
# The campaign covered roughly 390,000 compounds. About 4,000 (1%) were called active. The shares of active, inactive and inconclusive entries below differ from those in the screen. The call rests on the fitted dose curve; in most records, active means well fitted inhibition curve with a large enough effect; inconclusive means small, poorly fitted or top-dose-only effect; inactive means no such curve, though single readings can be large or run the other way. A potency beside an inconclusive call is a rough fit, not a confirmed value.
# Molecular target: Thioredoxin reductase 1, cytoplasmic (Rattus norvegicus) (UniProt O89049)
# Assay: qHTS Assay for Inhibitors of Mammalian Selenoprotein Thioredoxin Reductase 1 (TrxR1): qHTS; further: nearly all actives have a fitted effect of over 65% in size
# Details: recombinant rTrxR1, NADPH fluorescence consumption, selenite substrate; series mostly up to 114 µM
# Summary of the method: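 Rat TrxR1 (90 nM in the dispensed reagent) was pre-reduced with 400 uM NADPH for 5 min at room temperature, then incubated with compound for 15 min. After 400 uM selenite was added, NADPH fluorescence (Ex 340/Em 450 nm) was followed for 8 min.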
# Potency means the concentration at half of the fitted maximal effect; tags describe the fitted curve by direction and shape.
# Chain of UniProt O89049 (O89049 whole entry, looked up): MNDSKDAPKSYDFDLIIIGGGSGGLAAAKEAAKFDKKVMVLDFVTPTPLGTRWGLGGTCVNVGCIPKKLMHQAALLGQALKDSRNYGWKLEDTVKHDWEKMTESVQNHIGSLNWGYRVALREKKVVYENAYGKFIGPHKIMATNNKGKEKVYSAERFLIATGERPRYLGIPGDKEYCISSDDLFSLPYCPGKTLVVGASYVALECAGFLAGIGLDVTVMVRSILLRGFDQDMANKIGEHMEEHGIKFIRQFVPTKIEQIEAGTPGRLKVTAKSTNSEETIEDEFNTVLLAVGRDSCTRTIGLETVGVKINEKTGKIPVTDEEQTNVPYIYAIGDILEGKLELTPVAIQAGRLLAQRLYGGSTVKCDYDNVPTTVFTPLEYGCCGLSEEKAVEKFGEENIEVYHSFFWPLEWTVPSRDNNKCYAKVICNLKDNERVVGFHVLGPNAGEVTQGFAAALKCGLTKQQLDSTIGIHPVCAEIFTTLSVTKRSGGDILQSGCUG
row,SMILES,Potency
1,COCC1CCN(Cc2c(C(=O)N3CCN(C4CCCCC4)CC3)nc3ccccn23)C1 (stereo unspecified),"inconclusive: 70.8 µM [inhibitor, single point]"
2,N#C/C(=C\c1cccc([N+](=O)[O-])c1)C(=O)NCc1ccc(Cl)cc1,"inconclusive: 28.2 µM [inhibitor, single point]"
3,Cc1c(Cl)cccc1NC(=O)Nc1nnc(N(C)Cc2ccccc2)s1,inactive
4,O=C(C1CCC(=O)N(C2CCCC2)C1)N1CCN(Cc2cccc(F)c2)CC1 (stereo unspecified),"inconclusive: 70.8 µM [inhibitor, partial curve]"
5,O=C(Cc1cc(=O)oc2cc(O)ccc12)NC(Cc1ccc(Cl)cc1)C(=O)O (stereo unspecified),"inconclusive: 89.1 µM [inhibitor, single point]"
6,COCCN(Cc1cccs1)S(=O)(=O)c1ccc(-c2ccc(=O)[nH]n2)s1,"inconclusive: 39.8 µM [inhibitor, partial curve]"
7,CCOC(=O)C(C(=O)OCC)C(Nc1ccc(Br)cc1)c1ccccc1 (stereo unspecified),"inconclusive: 22.4 µM [inhibitor, partial curve, poor fit]"
8,O=C(NCc1cccnc1)/C(=C\c1ccc(-c2cccc(Cl)c2)o1)S(=O)(=O)c1ccccc1,active: 11.2 µM
9,CCCC1C(c2ccco2)NC(c2ccco2)CC1(C)O (stereo unspecified),"inconclusive: 10 µM [inhibitor, full curve, poor fit]"
10,Cn1c(=O)c2[nH]c(Cc3cccc(O)c3)nc2n(C)c1=O,inactive
11,O=C(NCCc1ccc2c(c1)OCCO2)c1ccc(F)cc1,"inconclusive: 89.1 µM [inhibitor, single point]"
12,CCOc1ccc(CCNC(=O)CCc2c(C)nc3cc(-c4ccccc4OC)nn3c2C)cc1,inactive
13,Cc1ccc(/C=N/N=C2/NC(=O)CS2)o1,inactive
14,CCOC(=O)C(C(=O)OCC)C(Nc1ccccc1)c1ccccc1 (stereo unspecified),"inconclusive: 44.7 µM [inhibitor, partial curve, poor fit]"
15,CCOC(=O)N/N=C\c1ccc([N+](=O)[O-])s1,inactive
16,O=c1c2ccccc2c(/C=N/n2cnnc2)c(O)n1-c1ccccc1,"inconclusive: 25.1 µM [inhibitor, partial curve]"
17,Cc1ccc2[nH]c3c(c2c1)CN(C(=O)CN(C)CC1OCCO1)CC3,"inconclusive: 56.2 µM [inhibitor, partial curve, poor fit]"
18,CCCC1=Nc2cc(C(=O)NCCc3ccccc3)ccc2Sc2ccc(C)cc21,inactive
19,Cc1cccc(NC(=O)c2cc(-c3ccco3)nc3ccccc23)n1,"inconclusive: 44.7 µM [inhibitor, partial curve, poor fit]"
20,CC(Nc1cccc(F)c1)C(=O)Nc1ccc(S(N)(=O)=O)cc1 (stereo unspecified),inactive
21,Cn1c2ccccc2c(=O)c2c(=O)n(C3CCCCCC3)c(C3CCCCC3)nc21,inactive
22,Cc1ccc(C2C(C#N)=C(N)SC(N)=C2C#N)cc1,"inconclusive: 7.08 µM [inhibitor, full curve]"
23,O=C(COC(=O)C1CC(=O)N(Cc2ccco2)C1)c1ccc(OC(=O)c2ccco2)cc1 (stereo unspecified),"inconclusive: 20 µM [inhibitor, full curve, poor fit]"
24,COc1ccc2c(c1)c1nc3ccccc3nc1n2CC(=O)OC(C)C,inactive

row,SMILES,Potency
1,CCC(C)Cn1cnc2c(Sc3c([N+](=O)[O-])ncn3C)nc(N)nc21 (stereo unspecified),active: 2.82 µM
2,CCCOc1ccc(N2C(=O)CC(N(O)c3ccccc3)C2=O)cc1 (stereo unspecified),active: 7.94 µM
3,CCCOc1ccc(-c2nc(=S)[nH][nH]2)cc1,inactive
4,CSC1=NC(C)(C)C=C(/C=C/c2ccc(Cl)cc2Cl)N1,"inconclusive: 25.1 µM [inhibitor, single point]"
5,O=C(NCC(c1cccs1)N1CCOCC1)c1ccc(Cl)c([N+](=O)[O-])c1 (stereo unspecified),"inconclusive: 89.1 µM [inhibitor, single point]"
6,CSc1nnc(N2C(=O)C(O)=C(C(=O)c3ccco3)C2c2ccccc2)s1 (stereo unspecified),"inconclusive: 56.2 µM [inhibitor, partial curve, poor fit]"
7,Brc1ccc(CN2CC[C@H]3C=CCc4cccc(c43)C2)cc1,"inconclusive: 89.1 µM [inhibitor, single point]"
8,COc1ccc(OC)c(NC(=O)/C=C/c2ccc(C)o2)c1,"inconclusive: 50.1 µM [inhibitor, partial curve, poor fit]"
9,Cc1ccc(-c2ccc(NC(=O)C3C4C=CC(C4)C3C(=O)O)cc2)o1 (stereo unspecified),active: 22.4 µM
10,COc1cccc(/C=N/n2c(N)c(S(=O)(=O)c3cccs3)c3nc4ccccc4nc32)c1,inactive
11,Cc1[nH]c2ccccc2c1C(=O)CSCC(=O)O,"inconclusive: 50.1 µM [inhibitor, partial curve, poor fit]"
12,Cc1[nH]c2ccccc2c1C(c1ccccn1)c1c(C)[nH]c2ccccc12,active: 39.8 µM
13,NC(=S)C(c1ccccc1)c1ncc(C(F)(F)F)cc1Cl (stereo unspecified),"inconclusive: 79.4 µM [inhibitor, single point]"
14,CCOc1cccc2c1OC(c1cc(OC)c(OC)c(OC)c1)N1N=C(c3ccc(C)o3)CC21 (stereo unspecified),"inconclusive: 79.4 µM [inhibitor, partial curve]"
15,Cc1coc2c(C)c3oc(=O)c4c(c3cc12)CCCC4,"inconclusive: 10 µM [inhibitor, partial curve]"
16,Cc1ccc2nc(-c3ccccc3)cn2c1,inactive
17,COc1ccc(S(=O)(=O)N2CCn3c2nc2ccccc23)cc1,"inconclusive: 31.6 µM [inhibitor, partial curve, poor fit]"
18,COCCNC(=O)c1c(NC(=O)c2nc(SC)ncc2Cl)sc2c1CCCC2,"inconclusive: 11.2 µM [inhibitor, partial curve]"
19,CCOc1ccc(CN(C)C(=O)c2cc3ccccc3o2)cc1OC,"inconclusive: 89.1 µM [inhibitor, single point]"
20,COc1cccc(N2C(=O)CC(Sc3nc(C)cc(C)n3)C2=O)c1 (stereo unspecified),inactive
21,CCOc1ccccc1CNc1ncnc2ccc(-c3c(C)noc3C)cc12,"inconclusive: 89.1 µM [inhibitor, single point]"
22,CC(=O)c1ccc(/C=C/c2nc3ccccc3n2C)o1,"inconclusive: 20 µM [inhibitor, full curve]"
23,Cc1ccc(C(=O)O)cc1N1C(=O)c2cccc3c([N+](=O)[O-])ccc(c23)C1=O,"inconclusive: 44.7 µM [inhibitor, partial curve]"
24,COC(=O)c1ccc(-c2nc3ccccc3[nH]2)cc1,active: 56.2 µM

row,SMILES,Potency
1,CC(=O)c1cccc(NC(=S)NC(=O)c2cccc(C)c2)c1,"inconclusive: 15.8 µM [inhibitor, full curve, poor fit]"
2,Cc1cc(C)c2cc(CN(CCO)Cc3nnnn3Cc3ccc(F)cc3)c(=O)[nH]c2c1,inactive
3,CCOc1cccc(=O)c2c(C)n(CC3CCCO3)c(C)c12 (stereo unspecified),"inconclusive: 56.2 µM [inhibitor, single point]"
4,COc1cc(/C=C2\C(=N)N3N=C(S(C)(=O)=O)SC3=NC2=O)ccc1OS(=O)(=O)c1ccc(C)cc1,"inconclusive: 79.4 µM [inhibitor, partial curve]"
5,COc1ccc(NC(=S)NC(=O)c2ccc3c(c2)OCCO3)cc1,active: 3.55 µM
6,Cc1cccc(C(=O)c2c[nH]cc2-c2ccccc2)c1,"inconclusive: 89.1 µM [inhibitor, partial curve, poor fit]"
7,CN(Cc1nccn1C)C(=O)CC1C(=O)NCCN1Cc1ccc(F)cc1Cl (stereo unspecified),"inconclusive: 70.8 µM [inhibitor, partial curve, poor fit]"
8,Cc1cccc(CN2C(=O)N/C(=C/c3ccc(C)s3)C2=O)c1,"inconclusive: 50.1 µM [inhibitor, partial curve]"
9,Cc1ccccc1N=C/C=C1/C=C(c2ccccc2)OC(C)(C)O1,"inconclusive: 31.6 µM [inhibitor, partial curve]"
10,Fc1ccc(CNc2nc(-c3ccccc3)nc3ccccc23)cc1,inactive
11,CCOc1ccc(C(=O)NC2CCCCCCC2)cc1,inactive
12,CCCn1c(SCC(=O)N2CCCc3ccccc32)nnc1-c1ccco1,"inconclusive: 31.6 µM [inhibitor, single point]"
13,Cc1ccc(-c2csc3nc(C)n(-n4cccc4)c(=O)c23)o1,"inconclusive: 56.2 µM [inhibitor, partial curve, poor fit]"
14,CC1CC(C)CN(S(=O)(=O)N2CCC(C(=O)NCc3ccco3)CC2)C1 (stereo unspecified),"inconclusive: 89.1 µM [inhibitor, single point]"
15,CCc1ccc(-c2nc(CS(=O)CC(=O)NCCc3ccc(Cl)cc3)c(C)o2)cc1 (stereo unspecified),inactive
16,O=C(CCl)N1N=C(c2ccco2)CC1c1ccco1 (stereo unspecified),active: 2.51 µM
17,CCOc1ccccc1N(CC(=O)N1CCc2ccccc2C1)S(=O)(=O)c1ccccc1,inactive
18,O=C1c2ccccc2C(Nc2cccc(C(F)(F)F)c2)N1Cc1ccco1 (stereo unspecified),"inconclusive: 3.16 µM [inhibitor, partial curve, poor fit]"
19,CC(=O)N1/C(=C/c2ccc(N(C)C)cc2)C(=O)c2ccccc21,active: 39.8 µM
20,CCN(CC)c1ccc(NC(=O)c2cccc(C)c2OC)c(C)c1,"inconclusive: 31.6 µM [inhibitor, single point]"
21,COc1cccc(-c2csc(NC3OC(=O)c4c3ccc(OC)c4OC)n2)c1 (stereo unspecified),"inconclusive: 39.8 µM [inhibitor, partial curve]"
22,Nn1c(SCC(=O)NCc2ccc3c(c2)OCO3)nnc1C(F)(F)F,inactive
23,O=C(Nc1ccc(C(=O)N2CCCC2)cc1)c1cccc(C(F)(F)F)c1,inactive
